# Results reported in the supplement of paper PMC8728848.
# The list shows a part of the results.
# B1: CCL1 (Coprinopsis cinerea) (protein)
# chain: MDTQAKPPAGRYVIYNRVLSPNGEKLALTYPGYQREALTLTPLHHSANQIWILNNWDATTSSLTPETARNTQVGWGSGNVPIVLPPGNYVWTLASSAGGYIIQDGGKTVYWNAGEAVANTKVSIGGDNGLQARWIFERV
# Experiments:
# Experiment in all cases: glycan array binding signal (z-score within array); higher = stronger binding
# Settings in all cases: glycan notation: IUPAC condensed, linker removed
# [1] = molecular target: Fuc(a1-3)[Gal(b1-4)]GlcNAc(b1-4)Gal(b1-4)[Fuc(a1-3)]GlcNAc
# How it was run: (§1)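 Negative Z-scores can be read as non-binding. The Z-score is calculated within each array and then averaged across arrays of one protein sequence at different concentrations or buffers and across linkers. Arrays, 3228 in all, were curated from the Consortium for Functional Glycomics database and kept only where the protein sequence was available.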
# [2] = molecular target: Fuc(a1-3)[Gal(b1-4)]GlcNAc(b1-4)Gal(b1-4)[Fuc(a1-3)]GlcNAc(b1-4)Gal(b1-4)[Fuc(a1-3)]GlcNAc
# How it was run: as §1
# [3] = molecular target: Fuc(a1-3)[Gal(b1-4)]GlcNAc(b1-6)GalNAc
# How it was run: as §1
# [4] = molecular target: Fuc(a1-3)[Gal(b1-4)]GlcNAc(b1-6)[Gal(b1-3)GlcNAc(b1-3)]Gal(b1-4)Glc
# How it was run: as §1
# [5] = molecular target: Fuc(a1-3)[Gal(b1-4)]GlcNAc(b1-6)[Neu5Ac(a2-3)Gal(b1-3)]GalNAc
# How it was run: as §1
# [6] = molecular target: Fuc(a1-3)[Gal(b1-4)]GlcNAc6S
# How it was run: as §1
# [7] = molecular target: Fuc(a1-3)[Gal3S(b1-4)]GlcNAc
# How it was run: as §1
# [8] = molecular target: Fuc(a1-3)[Gal3S(b1-4)]GlcNAc6S
# How it was run: as §1
# [9] = molecular target: Fuc(a1-3)[GalNAc(b1-4)]GlcNAc
# How it was run: as §1
# [10] = molecular target: Fuc(a1-3)[GalNAc(b1-4)]GlcNAc6S
# How it was run: as §1
# [11] = molecular target: Fuc(a1-3)[GalNAc3S(b1-4)]GlcNAc
# How it was run: as §1
# Fuc(a1-4)GlcNAc = molecular target: Fuc(a1-4)GlcNAc
# How it was run: as §1
# Fuc(b1-3)GlcNAc = molecular target: Fuc(b1-3)GlcNAc
# How it was run: as §1
# Gal(a1-2)Gal = molecular target: Gal(a1-2)Gal
# How it was run: as §1
# Gal(a1-3)Gal = molecular target: Gal(a1-3)Gal
# How it was run: as §1
# Gal(a1-3)Gal(b1-3)GlcNAc = molecular target: Gal(a1-3)Gal(b1-3)GlcNAc
# How it was run: as §1
# [12] = molecular target: Gal(a1-3)Gal(b1-3)GlcNAc(b1-2)Man(a1-3)[Gal(a1-3)Gal(b1-3)GlcNAc(b1-2)Man(a1-6)]Man(b1-4)GlcNAc(b1-4)GlcNAc
# How it was run: as §1
# [13] = molecular target: Gal(a1-3)Gal(b1-3)GlcNAc(b1-3)GalNAc
# How it was run: as §1
# [14] = molecular target: Gal(a1-3)Gal(b1-3)GlcNAc(b1-6)GalNAc
# How it was run: as §1
# [15] = molecular target: Gal(a1-3)Gal(b1-3)[Fuc(a1-4)]GlcNAc(b1-2)Man(a1-3)[Gal(a1-3)Gal(b1-3)[Fuc(a1-4)]GlcNAc(b1-2)Man(a1-6)]Man(b1-4)GlcNAc(b1-4)GlcNAc
# How it was run: as §1
# Gal(a1-3)Gal(b1-4)Glc = molecular target: Gal(a1-3)Gal(b1-4)Glc
# How it was run: as §1
# Gal(a1-3)Gal(b1-4)GlcNAc = molecular target: Gal(a1-3)Gal(b1-4)GlcNAc
# How it was run: as §1
# [16] = molecular target: Gal(a1-3)Gal(b1-4)GlcNAc(b1-3)GalNAc
# How it was run: as §1
# [17] = molecular target: Gal(a1-3)Gal(b1-4)GlcNAc(b1-6)GalNAc
# How it was run: as §1
# [18] = molecular target: Gal(a1-3)Gal(b1-4)[Fuc(a1-3)]GlcNAc
# How it was run: as §1
# [19] = molecular target: Gal(a1-3)Gal(b1-4)[Fuc(a1-3)]GlcNAc(b1-2)Man(a1-3)[Gal(a1-3)Gal(b1-4)[Fuc(a1-3)]GlcNAc(b1-2)Man(a1-6)]Man(b1-4)GlcNAc(b1-4)GlcNAc
# How it was run: as §1
# Gal(a1-3)GalNAc = molecular target: Gal(a1-3)GalNAc
# How it was run: as §1
# [20] = molecular target: Gal(a1-3)[Gal(a1-4)]Gal(b1-4)GlcNAc
# How it was run: as §1
# [21] = molecular target: Gal(a1-4)Gal(b1-3)GlcNAc(b1-2)Man(a1-3)[Gal(a1-4)Gal(b1-3)GlcNAc(b1-2)Man(a1-6)]Man(b1-4)GlcNAc(b1-4)GlcNAc
# How it was run: as §1
# Gal(a1-4)Gal(b1-4)Glc = molecular target: Gal(a1-4)Gal(b1-4)Glc
# How it was run: as §1
# Gal(a1-4)Gal(b1-4)GlcNAc = molecular target: Gal(a1-4)Gal(b1-4)GlcNAc
# How it was run: as §1
# [22] = molecular target: Gal(a1-4)Gal(b1-4)GlcNAc(b1-2)Man(a1-3)[Gal(a1-4)Gal(b1-4)GlcNAc(b1-2)Man(a1-6)]Man(b1-4)GlcNAc(b1-4)GlcNAc
# How it was run: as §1
# [23] = molecular target: Gal(a1-4)Gal(b1-4)GlcNAc(b1-3)Gal(b1-4)Glc
# How it was run: as §1
# Gal(a1-4)GlcNAc = molecular target: Gal(a1-4)GlcNAc
# How it was run: as §1
# Gal(a1-6)Glc = molecular target: Gal(a1-6)Glc
# How it was run: as §1
# Gal(b1-2)Gal = molecular target: Gal(b1-2)Gal
# How it was run: as §1
# Gal(b1-3)Gal = molecular target: Gal(b1-3)Gal
# How it was run: as §1
# Gal(b1-3)Gal(b1-4)GlcNAc = molecular target: Gal(b1-3)Gal(b1-4)GlcNAc
# How it was run: as §1
# [24] = molecular target: Gal(b1-3)Gal(b1-4)GlcNAc(b1-2)Man(a1-3)[Gal(b1-3)Gal(b1-4)GlcNAc(b1-2)Man(a1-6)]Man(b1-4)GlcNAc(b1-4)GlcNAc
# How it was run: as §1
# Gal(b1-3)GalNAc = molecular target: Gal(b1-3)GalNAc
# How it was run: as §1
# [25] = molecular target: Gal(b1-3)GalNAc(a1-3)[Fuc(a1-2)]Gal(b1-4)Glc
# How it was run: as §1
# [26] = molecular target: Gal(b1-3)GalNAc(a1-3)[Fuc(a1-2)]Gal(b1-4)GlcNAc
# How it was run: as §1
# [27] = molecular target: Gal(b1-3)GalNAc(b1-3)Gal(a1-4)Gal(b1-4)Glc
# How it was run: as §1
# [28] = molecular target: Gal(b1-3)GalNAc(b1-4)Gal(b1-4)Glc
# How it was run: as §1
# [29] = molecular target: Gal(b1-3)GalNAc(b1-4)[Neu5Ac(a2-3)]Gal(b1-4)Glc
# How it was run: as §1
binder,measurement,setting,value
B1,glycan array binding signal (z-score),[1],1.02
same,glycan array binding signal (z-score),[2],1.68
same,glycan array binding signal (z-score),[3],0.078
same,glycan array binding signal (z-score),[4],0.53
same,glycan array binding signal (z-score),[5],0.424
same,glycan array binding signal (z-score),[6],0.449
same,glycan array binding signal (z-score),[7],-0.072
same,glycan array binding signal (z-score),[8],-0.071
same,glycan array binding signal (z-score),[9],8.48
same,glycan array binding signal (z-score),[10],13.6
same,glycan array binding signal (z-score),[11],7.46
same,glycan array binding signal (z-score),Fuc(a1-4)GlcNAc,-0.148
same,glycan array binding signal (z-score),Fuc(b1-3)GlcNAc,-0.146
same,glycan array binding signal (z-score),Gal(a1-2)Gal,-0.144
same,glycan array binding signal (z-score),Gal(a1-3)Gal,-0.174
same,glycan array binding signal (z-score),Gal(a1-3)Gal(b1-3)GlcNAc,-0.144
same,glycan array binding signal (z-score),[12],-0.12
same,glycan array binding signal (z-score),[13],-0.163
same,glycan array binding signal (z-score),[14],-0.131
same,glycan array binding signal (z-score),[15],-0.081
same,glycan array binding signal (z-score),Gal(a1-3)Gal(b1-4)Glc,-0.151
same,glycan array binding signal (z-score),Gal(a1-3)Gal(b1-4)GlcNAc,-0.163
same,glycan array binding signal (z-score),[16],-0.149
same,glycan array binding signal (z-score),[17],-0.164
same,glycan array binding signal (z-score),[18],1.11
same,glycan array binding signal (z-score),[19],0.527
same,glycan array binding signal (z-score),Gal(a1-3)GalNAc,-0.151
same,glycan array binding signal (z-score),[20],-0.143
same,glycan array binding signal (z-score),[21],-0.153
same,glycan array binding signal (z-score),Gal(a1-4)Gal(b1-4)Glc,-0.154
same,glycan array binding signal (z-score),Gal(a1-4)Gal(b1-4)GlcNAc,-0.149
same,glycan array binding signal (z-score),[22],-0.123
same,glycan array binding signal (z-score),[23],-0.154
same,glycan array binding signal (z-score),Gal(a1-4)GlcNAc,-0.164
same,glycan array binding signal (z-score),Gal(a1-6)Glc,-0.091
same,glycan array binding signal (z-score),Gal(b1-2)Gal,-0.13
same,glycan array binding signal (z-score),Gal(b1-3)Gal,-0.15
same,glycan array binding signal (z-score),Gal(b1-3)Gal(b1-4)GlcNAc,-0.151
same,glycan array binding signal (z-score),[24],-0.132
same,glycan array binding signal (z-score),Gal(b1-3)GalNAc,-0.163
same,glycan array binding signal (z-score),[25],-0.163
same,glycan array binding signal (z-score),[26],-0.15
same,glycan array binding signal (z-score),[27],-0.17
same,glycan array binding signal (z-score),[28],-0.172
same,glycan array binding signal (z-score),[29],-0.158
